Data published in PubChem BioAssay AID1347165 (National Center for Advancing Translational Sciences (NCATS), 2019).
Among all 220,000 compounds or so, about 5,700 (2.6%) were called active. The shares of active, inactive and inconclusive entries below differ from those in the screen. Calls follow the shape of the dose curve; as a rule, active = well fitted inhibition curve with a large enough effect; inconclusive = small, poorly fitted or top-dose-only effect; inactive = no such curve, though single readings can be large or run the other way. Potencies beside an inconclusive call are fits to weak or partial responses and may not hold up.

molecular target: Lysine-specific demethylase 5B (Homo sapiens) (UniProt Q9UGL1); assay: Primary screen for KDM5B Histone Demethylases FDH-coupled qHTS; settings: FDH-coupled NADH fluorescence (FDH is formaldehyde dehydrogenase); activity change, negative = inhibition: at 57.7 µM (top of the series) unless noted; also: nearly all actives have a fitted effect of over 70% in size; as to activity change, negative = inhibition: 0% is about no effect
In short: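 Compound dilutions met 200 nM (final) KDM5BΔAP for 10 min at room temperature before substrate addition. The substrate mix held 12.5 µM H3K4me3 with cofactors 25 µM α-ketoglutarate and 50 µM Fe²⁺. NADH signal gain over 30 min defined activity.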
Potency is read from the fitted curve at half-maximal effect; tags tell the direction and shape of the fitted curve.

Chain of UniProt Q9UGL1 (Q9UGL1 whole entry, looked up): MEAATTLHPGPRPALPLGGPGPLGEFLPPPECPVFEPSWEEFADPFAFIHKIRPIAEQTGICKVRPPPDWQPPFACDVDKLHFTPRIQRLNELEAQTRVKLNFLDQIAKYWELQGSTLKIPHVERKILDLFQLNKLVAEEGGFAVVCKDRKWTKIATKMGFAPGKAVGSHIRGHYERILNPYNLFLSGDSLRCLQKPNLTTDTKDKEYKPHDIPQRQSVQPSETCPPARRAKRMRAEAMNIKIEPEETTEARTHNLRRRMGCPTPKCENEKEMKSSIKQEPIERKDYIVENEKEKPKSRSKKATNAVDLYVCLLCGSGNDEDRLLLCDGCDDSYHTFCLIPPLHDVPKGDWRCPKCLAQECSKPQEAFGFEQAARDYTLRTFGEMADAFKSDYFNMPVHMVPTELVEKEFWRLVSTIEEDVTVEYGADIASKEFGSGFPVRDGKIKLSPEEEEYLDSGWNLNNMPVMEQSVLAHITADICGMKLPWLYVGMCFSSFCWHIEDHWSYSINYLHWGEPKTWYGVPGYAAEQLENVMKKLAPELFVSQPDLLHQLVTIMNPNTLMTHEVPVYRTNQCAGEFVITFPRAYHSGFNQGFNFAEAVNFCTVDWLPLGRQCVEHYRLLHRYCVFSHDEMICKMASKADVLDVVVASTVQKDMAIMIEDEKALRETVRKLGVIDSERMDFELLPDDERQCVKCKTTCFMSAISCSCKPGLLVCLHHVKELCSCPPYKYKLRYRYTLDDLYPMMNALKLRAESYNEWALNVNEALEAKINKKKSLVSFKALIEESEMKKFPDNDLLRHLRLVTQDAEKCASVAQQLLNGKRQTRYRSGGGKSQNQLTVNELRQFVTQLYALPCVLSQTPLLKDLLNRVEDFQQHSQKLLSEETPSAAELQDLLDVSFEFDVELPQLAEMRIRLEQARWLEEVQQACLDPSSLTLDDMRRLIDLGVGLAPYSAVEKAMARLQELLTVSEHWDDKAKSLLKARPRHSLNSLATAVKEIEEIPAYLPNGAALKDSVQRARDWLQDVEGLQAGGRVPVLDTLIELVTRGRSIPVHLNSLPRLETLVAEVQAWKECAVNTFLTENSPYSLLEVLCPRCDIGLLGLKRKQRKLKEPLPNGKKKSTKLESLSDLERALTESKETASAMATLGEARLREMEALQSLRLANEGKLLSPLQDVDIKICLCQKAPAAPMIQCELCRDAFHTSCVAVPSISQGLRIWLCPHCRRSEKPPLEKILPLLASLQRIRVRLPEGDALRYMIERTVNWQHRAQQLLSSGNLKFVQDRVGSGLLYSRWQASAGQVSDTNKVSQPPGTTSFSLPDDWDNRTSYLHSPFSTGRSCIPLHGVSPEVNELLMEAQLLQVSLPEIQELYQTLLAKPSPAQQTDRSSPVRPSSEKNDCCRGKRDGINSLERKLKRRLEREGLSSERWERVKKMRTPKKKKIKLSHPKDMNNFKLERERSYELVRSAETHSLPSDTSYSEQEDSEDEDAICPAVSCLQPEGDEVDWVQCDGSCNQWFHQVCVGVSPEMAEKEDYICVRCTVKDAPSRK

| Compound | activity change, negative = inhibition | Potency |
| --- | --- | --- |
| O=C(NC1CC1)c1ccc(NS(=O)(=O)c2ccccc2C(F)(F)F)cc1 | inactive: 19.1% | – |
| O=C(NC(C(=O)O)c1ccccc1)c1ccco1 (stereo not drawn) | inactive: -10.6% | – |
| CCOC(=O)c1c(S(=O)(=O)NCC(=O)Nc2cccc(CC)c2)c(C)n(C)c1C | inactive: 5.55% | – |
| CCOc1cccc2cc(-c3csc(Nc4cc(OC)ccc4OC)n3)c(=O)oc12 | inactive: 16.6% | – |
| COc1ccc(-c2ccnc(N[C@H]3CO[C@H]4[C@@H]3OC[C@H]4OC(=O)Nc3cccc(C(C)=O)c3)n2)cc1 | inactive: 41.7% | – |
| CC(C)Cn1nc(NC(=O)c2ccco2)c2cc3ccccc3nc21 | – | inconclusive: 22.4 µM [inhibitor, single point] |
| NC(=O)[C@H](CC1CCCCC1)NC(=O)[C@H]1CN(C(=O)C2CCNCC2)CCN1C(=O)c1cccs1 | – | inconclusive: 20 µM [inhibitor, partial curve, poor fit] |
| O=C(C[C@@H]1O[C@H](CNCc2cccc(Cl)c2)[C@@H](O)[C@H]1O)N1CCN(c2ccc(F)cc2)CC1 | inactive: -14.5% | – |
| Cc1ccc(S(=O)(=O)NC[C@H]2O[C@H](Cc3cc(-c4cccc(O)c4)on3)CC[C@@H]2O)cc1 | inactive: -24.4% | – |
| COc1ccc2[nH]c3c(c2c1)CCNC31CCN(C(=O)Cc2ccncc2)CC1 | – | inconclusive: 25.1 µM [inhibitor, single point] |
| Cc1noc(-c2cccc(OC3CN(C(=O)NC4CCCC4)C3)c2)n1 | – | inconclusive: 20 µM [inhibitor, partial curve, poor fit] |
| CC1(C)CC(=O)C(C=Nc2ccccc2)C(=O)C1 | inactive: 2.08% | – |
| COc1cccc(CNC(=O)Cn2cc3c(n2)-c2c(oc(C(=O)N4CCCC4)c2C)CC3)c1 | – | inconclusive: 4.47 µM [inhibitor, partial curve, poor fit] |
| CN(C)C[C@@H]1CN(c2ncccn2)C[C@H]1NC(=O)Cc1cccc(F)c1 | – | active: 25.1 µM |
| CC(=O)N1CCN(C(=O)C2CCCN(c3nc4ncccc4o3)C2)CC1 (stereo not drawn) | – | inconclusive: 28.2 µM [inhibitor, partial curve, poor fit] |
| C[C@@H]1O[C@@H](n2c3ccc(Cl)cc3c3ccc4c5cc(Cl)ccc5[nH]c4c32)[C@H](O)[C@H](O)[C@H]1O | – | inconclusive: 28.2 µM [inhibitor, partial curve, poor fit] |
| COc1c(Br)cc(/C=C(\C#N)c2nc3ccccc3[nH]2)c(OC)c1Br | – | inconclusive: 35.5 µM [inhibitor, single point] |
| COc1ccc(NC(=O)c2nc(-c3ccccc3)n(-c3ccccc3Cl)n2)cc1 | inactive: -15.8% | – |
| O=c1oc2cc(OCc3nn[nH]n3)ccc2cc1-c1ccc2ccccc2c1 | – | inconclusive: 25.1 µM [inhibitor, partial curve, poor fit] |
| COC1CCOC2(CCN(C(=O)c3cccc(F)c3)CC2)C1 (stereo not drawn) | inactive: 6.81% | – |
| O=C(O)C(c1cccc2c1OCC2)N1CCCN(c2ncccn2)CC1 (stereo not drawn) | – | inconclusive: 31.6 µM [inhibitor, partial curve, poor fit] |
| CCCCCC(=O)Nc1ccc2oc(-c3cccnc3)nc2c1 | – | inconclusive: 1.78 µM [inhibitor, full curve, poor fit] |
| Cc1ccc(C(=O)N2CCN(c3ccc(NC(=O)c4cc(C)cc(C)c4)cc3)CC2)cc1 | – | inconclusive: 39.8 µM [inhibitor, single point] |

| Compound | activity change, negative = inhibition | Potency |
| --- | --- | --- |
| CCOC(=O)C(C)Oc1cc2oc(=O)cc(CC)c2cc1Cl (stereo not drawn) | – | inconclusive: 39.8 µM [inhibitor, single point] |
| CCCCCCOc1ccc(CNc2cccc3ccccc23)cc1 | – | inconclusive: 25.1 µM [inhibitor, partial curve, poor fit] |
| Cc1cc(C(=O)NCc2ccccc2C)c2c(C)nn(-c3cccc(F)c3)c2n1 | – | inconclusive: 31.6 µM [inhibitor, partial curve, poor fit] |
| CCOC(=O)C(=Cc1ccncc1)C(=O)OCC | – | inconclusive: 22.4 µM [inhibitor, partial curve, poor fit] |
| CCCN(C)C(=O)c1ccc(-c2nnc3ccc(NC(=O)C4CCC4)cn23)cc1 | – | active: 22.4 µM |
| NC(=O)[C@H](Cc1ccc(O)cc1)NC(=O)C1=C[C@@H](NC(=O)c2cccnc2)[C@@H](O)[C@H](O)C1 | – | inconclusive: 20 µM [inhibitor, partial curve, poor fit] |
| Cc1ccc(Cn2c(SCC(=O)O)nc3c2c(=O)[nH]c(=O)n3C)cc1 | inactive: 11.9% | – |
| O=C(CCC1CCCN(S(=O)(=O)c2ccccc2F)C1)NCCN1CCOCC1 (stereo not drawn) | – | active: 20 µM |
| CC1CCN(C(=O)C(=O)N2CCN(c3nc(-c4ccco4)c4c(c3C#N)CC(C)(C)OC4)CC2)CC1 | – | inconclusive: 20 µM [inhibitor, partial curve, poor fit] |
| COC(=O)/C=C(C(=O)OC)/C(=C\C(=O)OC)C(=O)OC | inactive: 15% | – |
| COC(=O)c1ccccc1NC(=O)NC(=O)C(F)(F)F | – | inconclusive: 39.8 µM [inhibitor, single point] |
| CNc1nc(N2CC[C@H](N3CCN(C)CC3)[C@H](CCC(=O)O)C2)ncc1F | – | active: 14.1 µM |
| O=C1CCCCCN1C1CCN(Cc2ccccn2)CC1 | inactive: -26.1% [at 86.2 µM] | – |
| COc1cccc(C(=O)N2CCC(C(=O)N[C@@H]3CCOC[C@H]3OC)CC2)c1 | inactive: 27.6% | – |
| COc1ccc(-c2nc3cc(NC(=O)c4cccs4)ccc3o2)cc1 | inactive: -24.1% | – |
| O=[S+]([O-])(c1ccc(Br)cc1)c1nnn2c1nc(N1CCOCC1)c1ccccc12 | – | inconclusive: 79.4 µM [inhibitor, partial curve, poor fit] |
| Cc1nc(CS(=O)(=O)c2ccccn2)sc1C(=O)NNC(=O)c1c(F)cccc1Cl | inactive: 28.2% | – |
| Nc1nccnc1C(=O)NCCNc1ncccc1C(F)(F)F | – | inconclusive: 39.8 µM [inhibitor, single point] |
| CC(C)(Oc1ccc(Cl)cc1)C(=O)Nc1cc(C(C)(C)C)no1 | inactive: -24.1% | – |
| Fc1ccc(-c2ccc3ncc(Nc4ccnc(N5CCOCC5)c4)n3n2)cc1 | inactive: -23.3% [at 86.2 µM] | – |
| CCc1nc2ccccc2n1CCCCOc1ccccc1C | – | inconclusive: 50.1 µM [inhibitor, single point] |
| CCn1cc(C(=O)N[C@H](C(=O)O)C(C)C)c(=O)c2cc3c(cc21)OCO3 | – | inconclusive: 39.8 µM [inhibitor, single point] |
| O=C(Nc1ccc(N2CCN(CCOc3ccc(Cl)cc3)CC2)c(C(=O)O)c1)c1ccc(F)cc1 | – | inconclusive: 44.7 µM [inhibitor, single point] |

| Compound | activity change, negative = inhibition | Potency |
| --- | --- | --- |
| CN1CCCCC12Cc1ccccc1CN(C(=O)c1ccccc1)C2 (stereo not drawn) | – | active: 56.2 µM |
| COc1nc2ccccc2nc1C(C#N)C(=O)NC1CCCCC1 (stereo not drawn) | – | inconclusive: 28.2 µM [inhibitor, single point] |
| CCCC(O)c1nc2ccccc2n1CCCCOc1ccc(OC)cc1 (stereo not drawn) | – | inconclusive: 15.8 µM [inhibitor, partial curve, poor fit] |
| O=S(=O)(c1c(Cl)cccc1Cl)N1CCNCC1 | inactive: 6.92% | – |
| COc1cc(C2C3=C(CCCC3=O)Nc3nc(SCc4ccccc4)[nH]c(=O)c32)cc(OC)c1O (stereo not drawn) | – | inconclusive: 25.1 µM [inhibitor, partial curve, poor fit] |
| Cc1cc(C)cc(NC(=O)CSc2nncn3c2cc2occc23)c1 | – | inconclusive: 15.8 µM [inhibitor, partial curve, poor fit] |
| C=CCNC(=O)C1CCN(Cc2ccc(F)cc2)CC1 | inactive: 6.85% | – |
| Cc1sc(N2CCOCC2)nc1-c1ccc(NS(C)(=O)=O)cc1 | inactive: -25.6% | – |
| COc1ccc2[nH]c3c(c2c1)CCN(C)C31CCN(C(=O)Cc2ccncc2)CC1 | – | inconclusive: 28.2 µM [inhibitor, single point] |
| O=C(CSc1nc2ccccc2o1)OCC(=O)N1CCCC1 | inactive: 15.6% | – |
| CCn1c2c(c(=O)n3ncc(C(=O)Nc4cccc(Cl)c4C)c13)CN(Cc1ccc(OC)cc1)CC2 | – | inconclusive: 15.8 µM [inhibitor, partial curve, poor fit] |
| Cc1c(CC(=O)N2CCOCC2)c2c(n1Cc1ccc(F)cc1)CCCC2=O | – | inconclusive: 25.1 µM [inhibitor, partial curve, poor fit] |
| Cn1cc(CN2CC[C@H](c3nnc(-c4cccnc4)o3)C2)c2ccccc21 | – | inconclusive: 31.6 µM [inhibitor, single point] |
| CC(C)CN[C@H]1[C@H](O)[C@H](O)C[C@@H]1c1ccc(N2CCOCC2)nc1 | – | active: 35.5 µM |
| COC(=O)COc1ccc2c(C)c(-c3ccc(OC)cc3)c(=O)oc2c1 | – | inconclusive: 25.1 µM [inhibitor, partial curve, poor fit] |
| O=c1cc(CN2CCN(S(=O)(=O)c3ccccc3)CC2)c2cc(Cl)c(O)cc2o1 | inactive: -2070% | – |
| Cn1cc(C2CCN(C(=O)c3c(Cl)cc(Cl)cc3Cl)CC2)c2ccccc21 | – | inconclusive: 25.1 µM [inhibitor, single point] |
| CCCOc1cccc(C(=O)Nc2ccc(-c3nc4ccccc4s3)c(Cl)c2)c1 | – | inconclusive: 31.6 µM [inhibitor, partial curve, poor fit] |
| CCN1C(C(=O)c2ccccc2)=C(OC(=O)C(C)C)c2ccccc2S1(=O)=O | – | inconclusive: 15.8 µM [inhibitor, partial curve, poor fit] |
| Cc1noc(C(C)Sc2nc(C3CC3)nc3ccccc23)n1 (stereo not drawn) | inactive: 3.3% | – |
| O=C(CCNS(=O)(=O)c1ccc2c(c1)CCN2C(=O)C1CC1)N1CCN(c2ccc(F)cc2)CC1 | – | inconclusive: 1 µM [inhibitor, full curve, poor fit] |
| O=C(Cc1c[nH]c2ncc(-c3ccccc3F)cc12)N1CCOCC1 | – | inconclusive: 39.8 µM [inhibitor, partial curve, poor fit] |
